Results from PubChem BioAssay AID540317 (National Center for Advancing Translational Sciences (NCATS), 2011).
Among all 390,000 compounds or so, about 2,200 (0.56%) were called active. This list was built around the results that the source calls inconclusive (neither active nor inactive); the mix of calls is not that of the screen. Calls follow the shape of the dose curve; as a rule, active = well fitted inhibition curve with a large enough effect; inconclusive = small, poorly fitted or top-dose-only effect; inactive = no such curve, though single readings can be large or run the other way. Where the call is inconclusive, the potency comes from a doubtful curve fit.

The compounds below were run against Chromobox protein homolog 1 (Homo sapiens) (UniProt P83916) (assay: HTS for Inhibitors of HP1-beta Chromodomain Interactions with Methylated Histone Tails). Settings: AlphaScreen HP1-beta / biotin-H3K9me3 peptide binding; series mostly up to 114 µM.
How it was run: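 AlphaScreen: HP1-beta (50 nM) preformed 30 min with biotin-H3(1-18)K9me3 peptide (50 nM) in PBS pH 7.4, 0.01% Tween-20. Compound added for 30 min at RT, then streptavidin donor/nickel chelate acceptor beads (10 ug/mL) for 30 min.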
Also: nearly all actives have a fitted effect of over 70% in size.
Potency is read from the fitted curve at half-maximal effect; tags tell the direction and shape of the fitted curve.

Sequence of UniProt P83916 (P83916 whole entry, looked up): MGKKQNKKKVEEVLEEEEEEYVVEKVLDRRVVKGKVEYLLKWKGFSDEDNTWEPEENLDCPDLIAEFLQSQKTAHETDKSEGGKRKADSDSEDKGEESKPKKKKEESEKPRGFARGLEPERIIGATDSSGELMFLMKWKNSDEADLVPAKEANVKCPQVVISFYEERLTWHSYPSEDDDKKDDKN

Structure (SMILES) | Potency
CN(C)CCNS(=O)(=O)c1ccc(N2CCN(c3ccc(F)cc3)CC2)c([N+](=O)[O-])c1 | inconclusive: 22.4 µM [inhibitor, partial curve, poor fit]
COc1ccc(C(=O)Nc2c(O)ccc3ccccc23)cc1 | inconclusive: 70.8 µM [inhibitor, partial curve]
Cc1ccc(C(=O)/C=C/c2cc(Br)cc(Br)c2O)o1 | inactive
COc1ccc(C)c2sc(N(CCCN(C)C)C(=O)c3ccc(S(=O)(=O)N4CCc5ccccc5C4)cc3)nc12 | inconclusive: 63.1 µM [inhibitor, single point]
O=[N+]([O-])c1cc(Cl)cc(/C=N/NC(=S)Nc2cc(S(=O)(=O)N3CCOCC3)ccc2Cl)c1O | inconclusive: 20 µM [inhibitor, full curve]
O=C1C(O)=CC(=C(c2ccccc2)c2ccccc2)c2ccccc21 | active: 12.6 µM
c1ccc(-c2nnc3n2NC(c2ccc4c(c2)OCO4)S3)cc1 (centres undefined) | inconclusive: 25.1 µM [inhibitor, full curve, poor fit]
CCOC(=O)c1c(S(=O)(=O)N(C)C2CCCCC2)c(C)n(C)c1C | inactive
Nc1nc(CSC(=S)N2CCN(c3ccccc3)CC2)nc(Nc2ccc(F)cc2)n1 | inconclusive: 50.1 µM [inhibitor, partial curve]
CS(=O)(=O)c1ccc2c(c1)sc1nc(=O)c(/C=C3/C=CC(=O)C(O)=C3)c(N)n12 | active: 15.8 µM
O=C(NCCc1cccs1)C12CN(Cc3ccccc3)CC1C(c1cccc([N+](=O)[O-])c1)=NO2 (centres undefined) | inconclusive: 39.8 µM [inhibitor, single point]
COc1cc(S(=O)(=O)NCCc2c(C)[nH]c3ccc(C)cc23)ccc1Br | inconclusive: 50.1 µM [inhibitor, partial curve, poor fit]
CCOCCCNS(=O)(=O)c1ccc(NC(=O)c2ccc([N+](=O)[O-])cc2Cl)cc1 | inactive
CC(Nc1ccc(F)cc1)=[N+](C)CCNS(=O)(=O)c1ccc(Cl)cc1 | inconclusive: 70.8 µM [inhibitor, partial curve]
O=C(NCCc1nc2ccccc2n1Cc1ccccc1F)c1ccc(F)cc1 | inactive
CCSC1=N/C(=C\C=C2/Oc3ccccc3N2CC)C(=O)S1 | inconclusive: 15.8 µM [inhibitor, full curve, poor fit]
Cc1nnc(SCC(=O)N(C)C2CCS(=O)(=O)C2)n1Cc1ccccc1 (centres undefined) | inactive
CCCC(=O)Nc1sc(Cc2ccccc2)c(C)c1C(N)=O | inconclusive: 14.1 µM [inhibitor, full curve]
Cc1cccc(N2CCN(C(=O)C3CCN(C(=O)c4cc5sccc5n4C)CC3)CC2C)c1 (centres undefined) | inactive
Cc1cc(Cl)c(OCCCn2ccnc2)c(Br)c1 | inconclusive: 56.2 µM [inhibitor, partial curve, poor fit]
O=S(=O)(c1ccc(F)cc1)N1CCN(CC(O)COCc2ccccc2)CC1 (centres undefined) | inconclusive: 17.8 µM [inhibitor, full curve]
CC(C)C[C@@H](CNCC(=O)[C@H](C)NC(=O)c1[nH]cnc1C(=O)N[C@@H](C)CN)NC(=O)c1nc[nH]c1C(=O)N[C@@H](CC(=O)O)C(=O)O | inconclusive: 70.8 µM [inhibitor, single point]

Structure (SMILES) | Potency
CC(=O)C1=C(C)NC(SCC(N)=O)=C(C#N)C1C (centres undefined) | inconclusive: 39.8 µM [inhibitor, single point]
CCOC(=O)c1c(-c2ccco2)csc1NC(=O)COC(=O)c1cnccn1 | inconclusive: 70.8 µM [inhibitor, partial curve, poor fit]
O=[N+]([O-])c1ccc2nc(NCCCO)nc(-c3ccccc3)c2c1 | inconclusive: 39.8 µM [inhibitor, single point]
O=C(CN(CC1CCCO1)S(=O)(=O)c1ccc(S(=O)(=O)NC2CC2)cc1)Nc1ccccc1 (centres undefined) | inactive
C=CCn1c(O)c(N=NC(=S)Nc2ccc(OC)cc2)c2ccccc21 | inconclusive: 15.8 µM [inhibitor, full curve]
CCOc1ccc(C(=O)/C=C/Nc2ccc(S(=O)(=O)N=C(N)N)cc2)cc1 | inactive
S=C(Nc1ccccn1)c1ccccn1 | active: 12.6 µM
CCCN(CCC)C(=O)CC(c1ccc(F)cc1)c1ccco1 (centres undefined) | inactive
CCc1c(C)[nH]c2nc3ccccc3n2c1=O | inconclusive: 31.6 µM [inhibitor, single point]
CCOC(=O)c1cc(C#N)c(SC)nc1-c1ccccc1 | inactive
CCCCNc1c(-c2cccc(-c3ccc(OC)cc3)c2)nc2ccc(C)cn12 | inactive
N#Cc1c(-n2cccc2/C=N/O)sc2c1CCCC2 | inconclusive: 39.8 µM [inhibitor, partial curve]
COc1cccc(OC)c1OCCCCN1CCCC1 | inconclusive: 39.8 µM [inhibitor, partial curve, poor fit]
CS(=O)(=O)c1ccc(NC(=O)CN2C(=O)C3CCCCC3C2=O)cc1 (centres undefined) | inconclusive: 89.1 µM [inhibitor, single point]
S=c1[nH]nc(-c2ccco2)n1/N=C/c1ccccc1 | inconclusive: 50.1 µM [inhibitor, partial curve]
CCc1cc(C(=O)c2ccc(OC)cc2)c(NC(=O)CN2CCCC2)s1 | inconclusive: 28.2 µM [inhibitor, partial curve, poor fit]
O=C(Nc1nnc(-c2ccccn2)o1)c1cccc(Cl)c1 | inactive
Cc1cc(C)c(CSc2ncc(-c3ccc([N+](=O)[O-])cc3)[nH]2)c(C)c1 | inconclusive: 35.5 µM [inhibitor, partial curve]
Cc1nc(-c2cn[nH]c2)c2cc(C)oc2n1 | inactive
COc1ccc(CCNC(=S)N2CCC(C(N)=O)CC2)cc1 | inconclusive: 17.8 µM [inhibitor, partial curve, poor fit]
Cc1ccc2nc(SCc3cn4cccnc4n3)[nH]c2c1 | inconclusive: 39.8 µM [inhibitor, single point]
COc1ccc(NC(=O)CN(C)C(=O)c2ccc3[nH]c4c(c3c2)CC(C)CC4)cc1 (centres undefined) | inconclusive: 44.7 µM [inhibitor, partial curve]
